The campaign covered roughly 73,000 compounds. About 1,800 (2.5%) were called active. Inconclusive means that the source gave no clear call. Such entries were picked first, then a sample of the others. Calls come from the whole dose curve; as a rule, active = well fitted activation curve with a large enough effect; inconclusive = small, poorly fitted or top-dose-only effect; inactive = no such curve, though single readings can be large or run the other way. Potencies of inconclusive entries are left out as doubtful fits.
test: qHTS Assay for Agonists of the Thyroid Stimulating Hormone Receptor: Activators of Intracellular cAMP Concentrations in Parental HEK 293; conditions: parental HEK293 CNG cAMP sensor, membrane potential fluorescence; activation: at 57.1 µM (top of the series) unless noted; note: nearly all actives have a fitted effect of over 55% in size; for activation: % of control where 0% means no effect
Summary of the method: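 Parental HEK 293 cells stably expressing a modified CNG channel (no TSHR) report cAMP rise as membrane depolarization. Membrane potential dye with 100 uM RO 20-1724 was loaded for 60 min at room temperature, then compound added for 30 min; fluorescence read at 590 nm.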
Potency is the fitted concentration of half-maximal effect; tags give direction and shape of the fitted curve.

| SMILES | Potency | activation |
| --- | --- | --- |
| COC(=O)[C@@]1(Cc2ccc(OC)cc2)[C@H]2c3cc(C(=O)N4CCCC4)n(Cc4cc(F)c(F)c(F)c4)c3C[C@H]2CN1C(=O)c1ccccc1 | inconclusive [activator, full curve] | – |
| Cc1ccccc1-n1nnnc1-c1ccccc1 | inconclusive [activator, single point] | – |
| OC1CCN(c2c3c(nc4cc(-c5cccc(F)c5)nn24)CCCC3)CC1 | – | inactive: 1.56% |
| CCCC(=O)C1=C(O)C(C(=O)OC)C(C)(C)CC1=Nc1ccccc1 (centres undefined) | inconclusive [activator, single point] | – |
| Cn1c(=O)[nH]c(=O)c2c1nc(CN1CCN(c3cccc(Cl)c3)CC1)n2CCN1CCOCC1 | – | inactive: 0.85% |
| CCCCn1c(-c2cc(Cl)ccc2OC)n[nH]c1=S | inconclusive [activator, partial curve] | – |
| O=C(c1cc(-c2cccc(O)c2)on1)N1CCCCC1 | inconclusive [activator, single point] | – |
| O=C(Cn1c(CN2CCCCC2)nc2ccccc2c1=O)NC1CCCCC1 | inconclusive [activator, single point] | – |
| COc1ccc(N(Cc2ccco2)C(=O)c2ccccc2F)cc1OC | inconclusive [activator, partial curve] | – |
| N#CCCCSc1nnc(CSc2nc3ccccc3s2)n1-c1ccccc1 | inconclusive [activator, single point] | – |
| COc1ccc2[nH]c(=O)c(CN(Cc3ccc(C)cc3)Cc3nnnn3CC3CCCO3)cc2c1 (centres undefined) | inconclusive [activator, single point] | – |
| COC(=O)NC(/C(C(=O)OC)=C(\C)NCc1ccccc1)c1ccco1 (centres undefined) | – | inactive: 0.463% [at 11.4 µM] |
| Cc1noc(C)c1-c1cncnc1N(C)Cc1ccco1 | inconclusive [activator, partial curve] | – |
| CC(C)CN1CCc2nc(-c3ccccc3)c3c(c2C1)COC(C)C3 (centres undefined) | – | inactive: -2.08% [at 11.4 µM] |
| CCOc1cccc(=O)c2c(C)n(Cc3ccco3)c(C)c12 | inconclusive [activator, partial curve] | – |
| CCC(C)(C(=O)NC1CCCC1)N(Cc1cccs1)C(=O)Cc1cccs1 (centres undefined) | active: 2.51 µM | – |
| Cc1ccc(-c2nn3c(C)nnc3s2)cc1NC(=O)c1ccc(-c2ccc(Cl)cc2Cl)o1 | inconclusive [activator, partial curve] | – |
| O=C(Nc1nccs1)c1ccc(Cl)c(S(=O)(=O)N2CCCCC2)c1 | inconclusive [activator, partial curve] | – |
| C[C@@H]1C=C[C@](Cc2ccccc2)(C(=O)NCCc2c[nH]c3ccccc23)N1C(=O)c1ccccc1 | active: 2.51 µM | – |
| Cc1cc2c(c(=O)n1C1CC1)C(c1cccc(Cl)c1)C(C#N)=C(N)O2 (centres undefined) | active: 3.16 µM | – |
| CCOC(=O)c1ccccc1NC(=O)c1ccc(Cl)c(S(=O)(=O)N2CCOCC2)c1 | inconclusive [activator, partial curve] | – |
| Cn1c(CSCc2ccccc2Cl)nnc1SCC(=O)Nc1nccs1 | inconclusive [activator, single point] | – |
| NC[C@@H]1O[C@H](O[C@@H]2[C@H](O[C@@H]3O[C@H](CO)[C@@H](O)[C@@H]3O)[C@@H](O)[C@@H](N)C[C@H]2N)[C@@H](N)[C@H](O)[C@@H]1O | – | inactive: 10.6% [at 25.6 µM] |

| SMILES | Potency | activation |
| --- | --- | --- |
| Nc1nc(CSc2nc3ccccc3s2)nc(N2CCCCC2)n1 | inconclusive [activator, partial curve] | – |
| COC(=O)C1(CC(C)C)C=C2C(=C(C)C(=O)C2C)CN1 (centres undefined) | – | inactive: 6.13% |
| CN(C)Cc1c(O)ccc2occ(C(=O)c3ccccc3)c12 | inconclusive [activator, partial curve] | – |
| Cc1ccc(CNC(=O)CSc2nc(N3CCCCC3)nc(N3CCCCC3)n2)cc1 | inconclusive [activator, partial curve] | – |
| O=C(CCCn1c(SCC(=O)c2ccc(F)cc2)nc2ccccc2c1=O)NCc1ccco1 | inconclusive [activator, partial curve] | – |
| COc1cccc(Cn2c(=O)cnc3cnc(Nc4ccccc4)nc32)c1 | inconclusive [activator, full curve] | – |
| CC(C)[C@@H](OCc1ccccc1)[C@H](C)CO/N=C1/[C@H]2OC2[C@@H](O)[C@H]2[C@H]1CCn1c(=O)n(-c3ccccc3)c(=O)n12 (some centres undefined) | – | inactive: -0.515% [at 11.4 µM] |
| CC(C)OCCCNc1ncnc2c1[nH]c1ccccc12 | inconclusive [activator, partial curve] | – |
| CCOC(=O)CSc1nc2cc3c(cc2cc1C#N)OCO3 | inconclusive [activator, partial curve] | – |
| COc1cccc(-c2ccc3ncnc(N(C)Cc4ccco4)c3c2)c1 | active: 15.8 µM | – |
| CN(C)c1nc(N)nc(-c2cccnc2)n1 | inconclusive [activator, single point] | – |
| N#CCCn1c(=O)c(CCc2ccccc2)nc2cnc(Oc3cccc(Cl)c3)nc21 | active: 5.01 µM | – |
| Cc1cnc(CNc2ccnc(-c3ccccc3C)n2)cn1 | inconclusive [activator, single point] | – |
| Cc1cc(C(F)(F)F)c2c(=O)[nH]c(=O)n(Cc3ccccc3)c2n1 | inconclusive [activator, single point] | – |
| O=C(Nc1cccc2c1CCCC2)c1ccc(Br)o1 | active: 25.1 µM | – |
| Cc1cccc(C)c1NC(=O)Nc1cccs1 | – | inactive: 4.3% |
| CN(CCOc1ccc(Cl)cc1)c1ccc(S(=O)(=O)N2CCCCC2)cn1 | inconclusive [activator, partial curve] | – |
| COc1cc(OC)c(C2N(c3ccc(Cl)cc3)C(=O)C3CCCN32)cc1OC (centres undefined) | – | inactive: 5.88% |
| CCCOc1ccc(-c2nnc(-c3ccncc3)o2)cc1 | – | inactive: 14.8% |
| COc1ccc(CNC(=O)C2CC(c3ccc(F)cc3)=NO2)cc1 (centres undefined) | – | inactive: 25.3% [at 2.29 µM] |
| O=c1ccn([C@@H]2O[C@@H](COP(=O)(O)OP(=O)(O)O)[C@H](O)[C@@H]2O)c(=O)[nH]1 | inconclusive [activator, single point] | – |
| CC1=C2[C@H](/C=C(\C)C(=O)O)CC[C@@H](C)[C@H]2CC1 | inconclusive [activator, single point] | – |
| Cc1cc(C(=O)COC(=O)CCCN2C(=O)c3ccccc3C2=O)c(C)n1C | inconclusive [activator, single point] | – |

| SMILES | Potency | activation |
| --- | --- | --- |
| COc1ccc(-c2nc(S(=O)(=O)c3ccc(C)cc3)c(N3CCCC3)o2)cc1 | inconclusive [activator, single point] | – |
| CNC(=O)N(C1=NCC(C)(C)S1)c1ccc(F)c(Cl)c1 | inconclusive [activator, single point] | – |
| Cn1c(C(=O)N2CCN(c3ccc(F)cc3)CC2)cc2c(=O)n(C)c3ccccc3c21 | – | inactive: -0.375% |
| Cc1nn(-c2ccccc2)c2c1C1(C(=O)N(C)c3ccccc31)N(c1ccccc1)C(=O)N2 (centres undefined) | inconclusive [activator, single point] | – |
| CCC(=O)N1CCc2cc(S(=O)(=O)Nc3ccc4c(c3)OCCO4)ccc21 | inconclusive [activator, partial curve] | – |
| CCOc1ccc2nc(NC(=O)C(CC)Sc3nc(C)cc(=O)[nH]3)sc2c1 (centres undefined) | inconclusive [activator, partial curve] | – |
| Clc1ccccc1-c1nccc(NCc2cccs2)n1 | inconclusive [activator, single point] | – |
| O=C1NC(c2ccccc2)C(C(=O)c2cccs2)C(O)(C(F)(F)F)N1 (centres undefined) | – | inactive: -1.2% |
| COC(=O)c1ccccc1NC(=O)CSc1nnc(COc2cccc(OC)c2)n1C | active: 12.6 µM | – |
| COc1ccc(OCC(=O)Nc2cc(-c3nn4c(C)nnc4s3)ccc2C)cc1 | inconclusive [activator, single point] | – |
| NC(=O)CSc1nnc(-c2cc3ccccc3o2)n1Cc1ccccc1 | inconclusive [activator, partial curve] | – |
| O=C(NCCc1ccc(Cl)cc1)C1CCN(S(=O)(=O)N2CCCCC2)CC1 | inconclusive [activator, single point] | – |
| Cc1c(C)n(C(=O)CSc2nncn2C)c2ccccc12 | inconclusive [activator, single point] | – |
| Cn1c(=O)c(-c2cccs2)nc2cnc(N3CCNCC3)nc21 | – | inactive: 16.1% |
| COc1cccc(C2NC(=O)NC(C)=C2C(=O)Nc2ccc(C)cc2)c1 (centres undefined) | – | inactive: 1.46% |
| CCCCC(=O)Nc1ccc2c(c1)nc1n2CCSC1 | – | inactive: -16.2% |
| COCCNc1nc(-n2nc(C)cc2C)nc2sc3c(c12)CCCC3 | active: 15.8 µM | – |
| COc1ccc(C(=O)N2CCC3(CCN(Cc4ccccc4)CC3)CC2)cc1 | inconclusive [activator, single point] | – |
| Fc1ccccc1-c1nc(-c2ccccc2)no1 | – | inactive: 5.64% |
| COc1cccc(OCC(=O)N(Cc2nc(-c3ccc(Cl)cc3)no2)C(C)C)c1 | – | inactive: 22.8% |
| Cc1cccc(CNc2ccnc(-c3cccc(C#N)c3)n2)c1 | inconclusive [activator, single point] | – |
| COc1c(C)cc(Br)cc1C(=O)O | – | inconclusive: 37.4% [activator] |
| Cc1ccc2c(c1)N(CCCC(=O)NCCC1=CCCCC1)C(=O)CO2 | inconclusive [activator, single point] | – |

— PubChem BioAssay AID938 (National Center for Advancing Translational Sciences (NCATS), 2007)
